Experimental data reported in the supplement of paper PMC11417369.
Some of the results follow.

The sequences below were run on PfAP2-HC AP2 domain (GST-tagged) (assay: gcPBM binding intensity (ln(normalized median fluorescence intensity)); higher = stronger DNA binding).
Procedure, shortened: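 Binding intensity is the highest Masliner-normalised natural-log median intensity over replicate spots in either probe orientation. To obtain it, GST-tagged P. falciparum DNA-binding domains made in E. coli were incubated for 1 h on an Agilent 4 × 180k array of primer-extended double-stranded 36-bp intergenic genomic probes plus negative controls. Detection used Alexa488 anti-GST antibody with scanning at 488 nm.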
For “TTTGATAATAAGATATAATACTTAAATATATATATA [GTGCAC_negctrl_site339]”, the “gcPBM binding intensity (ln)” value was 9.36. With “AAATATATATTCAAAAGTACACAATTTGTTAATAAT [XGTACX_site8917]” the “gcPBM binding intensity (ln)” value was 9.62. For “TATTTTACGCGGTTTATAATGACATGTTCTATATTT [CACACA_negctrl_site1184]”, the “gcPBM binding intensity (ln)” value was 9.79. With “TGAATATAACAAATATGTACTTAAAATTGTTATATT [XGTACX_site5679]” the “gcPBM binding intensity (ln)” value was 9.47. With “CACACTTGCTCCTGTTGTACATAACCATAAGCAACA [XGTACX_site2102]” the “gcPBM binding intensity (ln)” value was 9.58. “ATTATTAAAAATATGGGTACATATTATTGTTATATA [XGTACX_site1958]” was tested, and the “gcPBM binding intensity (ln)” value was 9.46. For “TTATATTTTACAAATGCACACATAATTTTTTTTTTT [CACACA_site8890]”, the “gcPBM binding intensity (ln)” value was 9.7. For “AAAAAAAAAAAAAAATGTACATGACATGACATGACA [XGTACX_site4020]”, the “gcPBM binding intensity (ln)” value was 9.61. With “TAAAGAAATAAATACATACACACATATATATATATA [CACACA_site3363]” the “gcPBM binding intensity (ln)” value was 9.89. For “AAACTTTACATTACTTGTACATATATTCTATATAAT [XGTACX_site8640]”, the “gcPBM binding intensity (ln)” value was 9.92. For “CACGCGCACCAACACACACACACACCCATATATATA [CACACA_site2204]”, the “gcPBM binding intensity (ln)” value was 11.1. For “GTTGGGTAATTCGTAACACACATAAAATATATATAA [CACACA_site3986]”, the “gcPBM binding intensity (ln)” value was 9.76. With CTGTACACTTAAACGGTGCAAAAAGAAAAAAAAGAA the “gcPBM binding intensity (ln)” value was 9.68. In the case of “TGCCTATGACATGAATGTACATTAAAATTAAATAAA [XGTACX_site7126]”, the “gcPBM binding intensity (ln)” value was 9.48. In the case of “TTTTTTTCTTAAAGATGTACTTTTTAAAAACAATCT [XGTACX_site986]”, the “gcPBM binding intensity (ln)” value was 9.26. For “CATTTTATAAAAACAAGTACCCAACATATATATAAT [XGTACX_site5955]”, the “gcPBM binding intensity (ln)” value was 9.64. In the case of “AGACATATTCTTTTTACACACTTGAATAAAAAATAT [CACACA_site1205]”, the “gcPBM binding intensity (ln)” value was 9.56. For “GATGAGGACAGACACACACACATAAGTTGATACATA [CACACA_site7580]”, the “gcPBM binding intensity (ln)” value was 10.5. “GTTTTTACTTTTATCTGTACATAATACTACCAATAT [XGTACX_site5414]” was tested, and the “gcPBM binding intensity (ln)” value was 9.8. In the case of “TATATATTAAGATGCACACACAAGAAGTAATTATAA [CACACA_site5726]”, the “gcPBM binding intensity (ln)” value was 10. For “ATTTTTTCTTATAAAAAAGAAAAAGAAAAAGAAAAA [CACACA_negctrl_site1216]”, the “gcPBM binding intensity (ln)” value was 9.25. For “ACAGCTCTAGGACATGCATGTTATATAGAAAAAGAG [TGCATGCA_site703]”, the “gcPBM binding intensity (ln)” value was 9.65. “AAGTTAATGTTTTGCGCACACTTCTTTTTAATATAA [CACACA_site3938]” was tested, and the “gcPBM binding intensity (ln)” value was 9.99. For “TTCTTTATATAAACAAGTACATATAAAATACATATA [XGTACX_site8036]”, the “gcPBM binding intensity (ln)” value was 9.48. In the case of “AAATACATATTTAGAAGTACATTTATACATTTAATA [XGTACX_site8871]”, the “gcPBM binding intensity (ln)” value was 9.61. “TTCATTAAAGTTATTACACACAGTTCTTCAACCAAA [CACACA_site7613]” was tested, and the “gcPBM binding intensity (ln)” value was 9.66. With TGATATAAAATTAAAGTGCAAAAAAAAAATAAAAAA the “gcPBM binding intensity (ln)” value was 9.79. With “ATAATATTATGAACCTGTACATAATTTTTCTTTTCT [XGTACX_site3377]” the “gcPBM binding intensity (ln)” value was 9.62. In the case of “TATAATTTTTTTGAATTATATATATATATATATAAT [XGTACX_negctrl_site26]”, the “gcPBM binding intensity (ln)” value was 9.37. In the case of “AGTATATTTCTAACTTGTACGAAATTAATAATTTAT [XGTACX_site6635]”, the “gcPBM binding intensity (ln)” value was 9.47. “TATATATAATATGAATGTACACAAAAAGGTAATACA [XGTACX_site6202]” was tested, and the “gcPBM binding intensity (ln)” value was 9.87. For “AAAAAAAAGAAATAGACACACATATATTTTTAAACA [CACACA_site3954]”, the “gcPBM binding intensity (ln)” value was 9.79. For “AGGAAATTTTTTTTTTTTTTTTTTTTTTTTTTTTAC [TGCATGCA_negctrl_site170]”, the “gcPBM binding intensity (ln)” value was 9.06. “ATAATATATAATATAGTGCATTATTTATTAATTAAT [GTGCAC_site9852]” was tested, and the “gcPBM binding intensity (ln)” value was 9.46. In the case of “TCCTAATGGTTTAATTGTACAAAAAAAAAAAATATA [XGTACX_site322]”, the “gcPBM binding intensity (ln)” value was 9.37. With “TGATAAGTATACTAAAGTACATGAAAAATAACTTCC [XGTACX_site6908]” the “gcPBM binding intensity (ln)” value was 9.76. “ATAGATGTCTTCATATGTACATAAATTCAAGTATAT [XGTACX_site7492]” was tested, and the “gcPBM binding intensity (ln)” value was 9.61. For “TGATTATAAAAGTAGGTGCTACAAAAATTACACATT [GTGCAC_site9530]”, the “gcPBM binding intensity (ln)” value was 9.56. With “CAAAATATTATGAATTGTACATATTTTAAAACGTTT [XGTACX_site1614]” the “gcPBM binding intensity (ln)” value was 9.6. “GGTCTTTTTATGATATGTACTTATATAATATTATAT [XGTACX_site6458]” was tested, and the “gcPBM binding intensity (ln)” value was 9.85. With “ATGTAGAAGTAATGCACACATATGTATATATATATA [CACACA_site2494]” the “gcPBM binding intensity (ln)” value was 10.2. “AACAGCATGAAGTAAAGTACTAGTTTTATTTATTTA [XGTACX_site1116]” was tested, and the “gcPBM binding intensity (ln)” value was 9.64. For “TTATATTTTAAGAAATGTACATGATATAATTATCAA [XGTACX_site8693]”, the “gcPBM binding intensity (ln)” value was 9.45. In the case of “TGGATGAGGACATACACACACACATAAGTTGATACA [CACACA_site3423]”, the “gcPBM binding intensity (ln)” value was 10.3. With “TATTTCTTATGAAGGACATGCAATATTATTTATCTC [TGCATGCA_site683]” the “gcPBM binding intensity (ln)” value was 9.52. With “AATGAAAAGGAACATACACACCCCATATAAATATAT [CACACA_site7588]” the “gcPBM binding intensity (ln)” value was 10.3. “TTTTTTTTAATTTTCTGTACAAATTTATATATACTA [XGTACX_site4251]” was tested, and the “gcPBM binding intensity (ln)” value was 9.7. For “AAATAAAAATTACAAGCATGCATTTTCCTATTTGCA [TGCATGCA_site861]”, the “gcPBM binding intensity (ln)” value was 9.51. In the case of “GTGTAAAAATTAAAGTGTACACATATATATATATAT [XGTACX_site2251]”, the “gcPBM binding intensity (ln)” value was 9.7. “TTTCGAATTAAAGCATGTGAAAATTTTCAAAAAATA [XGTACX_negctrl_site577]” was tested, and the “gcPBM binding intensity (ln)” value was 9.51. In the case of “GAATCACTAATTTTTTTACACACCACAATTTAATTT [CACACA_site8311]”, the “gcPBM binding intensity (ln)” value was 10.1. With “ACAAAACATAATTGTTGTACAAAAAGAATTATATAT [XGTACX_site8422]” the “gcPBM binding intensity (ln)” value was 9.85. With “ATAATAATATAATATTCACACAATTGAAATAGTGTA [CACACA_site6083]” the “gcPBM binding intensity (ln)” value was 9.61. With “TTTCTATAATATTCTACACACCAACAACAAACATAT [CACACA_site6409]” the “gcPBM binding intensity (ln)” value was 10. In the case of “TATAAATATACAAAGGTGCATAAAAAGTTATGTTTT [GTGCAC_site9832]”, the “gcPBM binding intensity (ln)” value was 9.79. For “AAAAAATTTTGAAATTGTACATATATAAAAAATATA [XGTACX_site2629]”, the “gcPBM binding intensity (ln)” value was 9.5. For “TTTAAATATATTAATACACACACGATATGTACAAAA [CACACA_site539]”, the “gcPBM binding intensity (ln)” value was 9.96.
